Measurements from PubChem BioAssay AID761 (NMMLSC, 2007).
Out of some 190,000 compounds screened, about 400 (0.21%) were called active. Inconclusive results, whose numbers are uncertain, are shown with a selection of clear calls.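 The calls were made as follows: active = percent activity GTP binding at least 20 points away from the 100% baseline, either down as inhibitor or up as activator; inconclusive = compound flagged as likely green fluorescent from well-wide comparison; inactive = the rest.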

Biological target: Cell division control protein 42 homolog (Homo sapiens) (UniProt P60953)
UniProt P60953, sequence (P60953 whole entry, looked up): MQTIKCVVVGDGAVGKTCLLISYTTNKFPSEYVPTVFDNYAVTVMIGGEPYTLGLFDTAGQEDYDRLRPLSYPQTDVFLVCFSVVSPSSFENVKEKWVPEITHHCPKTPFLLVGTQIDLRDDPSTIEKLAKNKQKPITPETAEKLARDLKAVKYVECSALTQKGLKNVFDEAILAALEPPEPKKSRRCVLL
Assay: wildtype Cdc42 fluorescent GTP binding changes, either direction – biochemical, multiplex bead flow cytometry, Bodipy-GTP, primary screen (AID 761);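 also: median bead fluorescence of bound Bodipy-FL-GTP at 100 nM; 0% = excess unlabeled GTP control and 100% = no compound control; below 100% means less GTP binding so inhibitor and above means activator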
Conditions: GST-Cdc42 beads, at 10 µM, actives lie on both sides

SMILES	percent activity (GTP binding)
Cc1ccc(CN2CCN(CC(=O)NCc3ccc(Cl)cc3)C2=O)cc1	inconclusive: 107%
O=C(Nn1cnc2ccccc2c1=O)c1ccc(F)cc1Cl	inconclusive: 94%
CCOC(=O)C1CCN(c2cc(C)nc3cc(-c4cccc(F)c4)nn23)CC1	inconclusive: 90%
CN1c2ccccc2C(C)(C)C12CC(c1ccc(S(=O)(=O)N3CCCCC3)cc1)=NO2 (stereo not given)	inconclusive: 96%
C/C(=N\N(c1ccccc1)c1ccccc1)c1ccco1	inactive: 98%
Cn1c(=O)c2c(nc(N3CCc4ccccc4C3)n2C)n(C)c1=O	active: 80%
CC(=O)Nc1ccc(C(=O)NNC(=O)c2cc([N+](=O)[O-])cc([N+](=O)[O-])c2)cc1	inconclusive: 94%
CCOc1cc(C)c(S(=O)(=O)Nc2ccc3cn[nH]c3c2)cc1C	inconclusive: 108%
CC1CCCN(CCCNC(=O)CCn2nc(-c3ccccc3)ccc2=O)C1 (stereo not given)	inconclusive: 105%
CC1CC(C)CN(CC(O)COc2ccc3c(c2)CCC3)C1 (stereo not given)	inconclusive: 101%
CN(Cc1ccccc1)C(=O)Cn1c(=O)oc2cc(S(=O)(=O)NCc3ccccc3)ccc21	inconclusive: 102%
CC(C)OC(=O)NCCOC(=O)Nc1cccc(Cl)c1	inconclusive: 111%
Cc1ccccc1C(=O)Nc1ccc2c(C#N)c3nc4ccccc4nc3n2c1	inactive: 88%
Cc1ccccc1OCCOc1ccc([N+](=O)[O-])cc1/C=N/n1cnnc1	inactive: 95%
COCC(C)NCc1ccc(OC)c(Br)c1 (stereo not given)	inactive: 99%
COc1ccccc1CNC(=O)c1csc2c1CCCC2	inconclusive: 94%
O=c1/c(=C/c2ccc(O)c([N+](=O)[O-])c2)sc2nc3ccccc3n12	inconclusive: 88%
CCCCN(C(=S)NC(=O)c1ccccc1)c1c(N)n(Cc2ccccc2)c(=O)[nH]c1=O	inconclusive: 98%
COc1ccc2c(C)nc(N/C(N)=N/S(=O)(=O)c3ccc(C)cc3)nc2c1	inactive: 84%
COc1ccc(CNC(=O)CN(Cc2ccc(OC)cc2)C(=O)c2csnn2)cc1	inactive: 97%

SMILES	percent activity (GTP binding)
O=C(COC(=O)c1n[nH]c2ccccc12)NCc1ccccc1	inconclusive: 107%
CCOC(=O)N1CCN(CC(=O)Nc2ccc(F)cc2)CC1	inactive: 96%
COc1ccc(C(=O)OCC(=O)c2c(N)n(C)c(=O)n(C)c2=O)cc1OC	inconclusive: 91%
CC(=O)Nc1c(Nc2ccccc2)c2ccccc2oc1=O	inconclusive: 92%
C=C(C)Cn1c(SCC(=O)N/N=C/c2c(O)ccc3ccccc23)nc2ccccc2c1=O	inconclusive: 91%
CCN(CC)S(=O)(=O)c1ccc(C)c(NC(=O)Cn2cnc3cc([N+](=O)[O-])ccc3c2=O)c1	inconclusive: 84%
COc1ccc(OCC(=O)NNc2c3ccccc3nc3ccccc23)cc1	inconclusive: 93%
CC(NC(=O)COC(=O)CSCc1ccccc1)c1ccccc1 (stereo not given)	inconclusive: 94%
COc1ccc(C2NC(=S)NC3=C2CCc2cc(OC)ccc23)cc1 (stereo not given)	inactive: 98%
c1ccc(-c2nc3nc4ccccc4nc3n2Cc2ccco2)cc1	inconclusive: 104%
Cc1ccsc1/C=C(\C#N)C(=O)NCc1ccco1	inconclusive: 106%
CN1C(=O)C2(N=c3ccccc3=N2)c2ccccc21	inconclusive: 98%
CCN(CC)S(=O)(=O)c1cccc(C(=O)N2CCCCC2)c1	inconclusive: 89%
Cc1ccc(-n2cc(CNC(C)Cn3cncn3)c(-c3ccc(F)cc3)n2)cc1 (stereo not given)	inactive: 98%
CCCC1=NN2C(=N)/C(=C\c3cc(C)n(-c4cc(C)cc(C)c4)c3C)C(=O)N=C2S1	inconclusive: 85%
COC(=O)CC1C(=O)NCCN1Cc1cn(-c2ccc(C)cc2)nc1-c1cccc(C)c1 (stereo not given)	inactive: 92%
COc1ccccc1C(C)NCC(=O)NCC(=O)Nc1ccc(F)c(F)c1F (stereo not given)	inconclusive: 94%
CC(=O)Oc1ccc2c(c1)cc(C)n2C	inactive: 99%
CC(NC(=O)C(=O)N/N=C/c1ccccc1)c1ccccc1 (stereo not given)	inconclusive: 108%
COc1ccc(NC(=S)NCCCCCC(=O)C[N+](=O)[O-])cc1	inactive: 93%

SMILES	percent activity (GTP binding)
CC1CC(C)CN(CCCNC(=O)Cc2c(C(=O)O)[nH]c3ccccc23)C1 (stereo not given)	inconclusive: 105%
Cc1cc2nc3c(=O)n(C4CCCCC4)c(=O)[nH]c3nc2cc1N	active: 79%
CC(C)C(C(=O)O)N1C(=O)/C(=C/c2cccn2C)SC1=S (stereo not given)	inconclusive: 95%
FC(F)c1nc2ccccc2[nH]1	inactive: 100%
Cc1ccccc1OCC(=O)N1N=C(c2cccnc2)CC1(O)C(F)(F)F (stereo not given)	inconclusive: 101%
COCCCNC(=O)C12CCC(C)(C(=O)C1)C2(C)C (stereo not given)	inconclusive: 94%
CCOc1ccc2oc(-c3ccccc3)c(C(=O)N3CCN(C)CC3)c2c1	inconclusive: 105%
Cc1coc(=N)n1CC(=O)c1ccc(Cl)cc1	inactive: 99%
CC1=C2C(=O)OC(c3ccoc3)C2(C)CCC1 (stereo not given)	inconclusive: 104%
Cc1ccc(C=NCc2ccncc2)c(O)c1	inconclusive: 107%
COc1cccc(/C=C/C(=O)OCC(=O)Nc2ccc(Cl)cn2)c1	inactive: 88%
COc1ccc(CC(=O)Nc2ccc(-c3ccc4nnc(C)n4n3)cc2)cc1OC	inactive: 90%
Cc1ccc(S(=O)(=O)N2CCN(c3nc(C)nc4sc5c(c34)CCC(C)C5)CC2)cc1 (stereo not given)	inconclusive: 93%
COC(=O)C1CCN(CC(N)=O)CC1	inconclusive: 107%
CCOC(=O)c1c(NC(=O)C2CC(Cl)=CCC2C(=O)O)sc2c1CC(C)(C)OC2 (stereo not given)	inconclusive: 92%
Cc1cccc(C)c1OCC(=O)Nc1ccc(N2CCOCC2)cc1	inactive: 94%
CCN(CC)c1ccc(NS(=O)(=O)c2ccc(OC)cc2)cc1	inactive: 95%
COc1ccc(-c2nnn(CC(=O)NCc3ccc4c(c3)OCO4)n2)cc1OC	inconclusive: 87%
CCCC/C(O)=C1\C(=O)CC(C)(C)CC1=NCCCCCC(=O)O	inconclusive: 91%
Cc1ccccc1C(=O)Nc1cccc(C(=O)N/N=C/c2cc(Cl)cc([N+](=O)[O-])c2O)c1	active: 76%
